Assay results from PubChem BioAssay AID2313 (Broad Institute, 2010).
About 460 (2.1%) of roughly 22,000 compounds were called active. The inconclusive results got no clear call from the source; some entries with a clear call stand among them for comparison.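 The calls were made as follows: active = mean inhibition across valid replicates above about 65% (limit read from the data); inconclusive = mean under the limit, yet half or more replicates past it; inactive = the rest.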

Assay: Shh-driven Gli reporter inhibition – luminescence, Shh-LIGHT2 cells, Gli-luciferase, primary screen (AID 2313);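 also: pathway switched on by Shh-conditioned medium diluted 1 in 25 in low serum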
Conditions: 30 h, active compounds read high
For `Cc1ccc(S(=O)(=O)Nc2ccc3c(c2)CC(=O)N([C@H](C)CO)C[C@H](C)[C@H](CN(C)S(=O)(=O)c2c(C)noc2C)O3)cc1`, the inhibition was inconclusive: 43.4%.
For `CC(=O)OC[C@]12[C@H](OC(C)=O)[C@H](OC(C)=O)[C@@H]3[C@@H](OC(C)=O)[C@@]14O[C@@]3(C)COC(=O)c1ncccc1CC[C@H](C)C(=O)O[C@@H]([C@H](O)[C@@H]2OC(=O)c1ccccc1)[C@]4(C)O`, the inhibition was inactive: 32.6%.
For `COc1ccc(OC)c(NC(=O)c2ccc(CSc3ncnc4nc[nH]c34)cc2)c1`, the inhibition was active: 68.4%.
For `C[C@@H]1CN([C@H](C)CO)C(=O)c2cc(NC(=O)Cc3cn(C)c4ccccc34)ccc2O[C@@H]1CN(C)Cc1ccc(Oc2ccccc2)cc1`, the inhibition was inconclusive: 61.1%.
With `CC/C=C\C/C=C\C/C=C\CCCCCCCC(=O)O` the inhibition was inconclusive: 21.9%.
For `CC(C)(C)c1cc(-c2cccs2)c(C#N)c(SCC(=O)Oc2ccccc2)n1`, the inhibition was active: 65%.
With `Cc1ccc(S(=O)(=O)N(C)C[C@@H]2Oc3c(NC(=O)Nc4ccc(F)cc4)cccc3C(=O)N([C@@H](C)CO)C[C@@H]2C)cc1` the inhibition was active: 108%.
With `C[C@H]1CN([C@@H](C)CO)C(=O)c2cccc(NC(=O)NC3CCCCC3)c2O[C@H]1CN(C)S(=O)(=O)c1ccc(F)cc1` the inhibition was active: 103%.
In the case of `Cc1ccc(S(=O)(=O)Nc2cccc3c2O[C@@H](CN(C)CC2CC2)[C@H](C)CN([C@H](C)CO)C3=O)cc1`, the inhibition is reported as inactive: -43.6%.
In the case of `C[C@@H]1CN([C@H](C)CO)C(=O)c2cccc(NS(=O)(=O)c3ccccc3)c2O[C@@H]1CN(C)S(=O)(=O)c1cn(C)cn1`, the inhibition is reported as inconclusive: 53.9%.
For `C[C@@H]1CN([C@H](C)CO)C(=O)c2cccc(NC(=O)Nc3ccc(C(F)(F)F)cc3)c2O[C@@H]1CN(C)Cc1ccc(C(=O)O)cc1`, the inhibition was inactive: -19.6%.
With `O=C(CCCCC(=O)Nc1c(I)cc(I)c(C(=O)O)c1I)Nc1c(I)cc(I)c(C(=O)O)c1I` the inhibition was inconclusive: 49.6%.
For `C[C@@H]1CCCCO[C@@H](CN(C)C(=O)NC2CCCCC2)[C@@H](C)CN([C@H](C)CO)C(=O)c2cc(NC(=O)C3CCCCC3)ccc2O1`, the inhibition was inconclusive: 32.9%.
In the case of `COC(=O)c1c(-c2c(Cl)cccc2Cl)noc1NC(=O)NCc1ccccc1`, the inhibition is reported as inactive: 38.1%.
For `C[C@H](CO)N1C[C@H](C)[C@H](CN(C)Cc2ccncc2)Oc2ccc(NS(=O)(=O)c3ccc(Cl)cc3)cc2C1=O`, the inhibition was inconclusive: 34.7%.
In the case of `C[C@H]1CN([C@@H](C)CO)C(=O)c2cc(NS(=O)(=O)c3ccccc3)ccc2O[C@@H]1CN(C)Cc1ccc(Cl)c(Cl)c1`, the inhibition is reported as inconclusive: 63.3%.
In the case of `CC(C)NC(=O)N(C)C[C@@H]1Oc2c(NC(=O)Nc3ccc(C(F)(F)F)cc3)cccc2C(=O)N([C@@H](C)CO)C[C@H]1C`, the inhibition is reported as inconclusive: 34.6%.
In the case of `Cc1nc2c(cnn2-c2ccccc2)c(=O)n1NC(=O)Nc1ccc(Cl)c(Cl)c1`, the inhibition is reported as inconclusive: 31.8%.
For `C[C@H](CO)N1C[C@H](C)[C@H](CN(C)S(=O)(=O)c2ccc(F)cc2)Oc2ccc(NS(=O)(=O)c3ccc(Cl)cc3)cc2CC1=O`, the inhibition was inactive: 21.8%.
For `C[C@@H]1CN([C@H](C)CO)C(=O)Cc2cc(NC(=O)Cc3cn(C)c4ccccc34)ccc2O[C@H]1CN(C)C(=O)Nc1ccc(C(F)(F)F)cc1`, the inhibition was active: 83.4%.
With `C[C@@H]1CN([C@@H](C)CO)C(=O)c2cccc(NC(=O)Nc3ccc(F)cc3)c2O[C@@H]1CN(C)C(=O)Nc1cccc2ccccc12` the inhibition was inconclusive: 43.6%.
With `C[C@H]1CN([C@@H](C)CO)C(=O)Cc2cc(NC(=O)Nc3ccc4c(c3)OCO4)ccc2O[C@H]1CN(C)C(=O)Nc1ccc2c(c1)OCO2` the inhibition was inconclusive: 41%.
For `C[C@@H]1CN([C@@H](C)CO)C(=O)Cc2cc(NS(=O)(=O)c3ccc(Cl)cc3)ccc2O[C@@H]1CN(C)C(=O)Nc1ccccc1`, the inhibition was inactive: 13.4%.
In the case of `C[C@H]1CN([C@@H](C)CO)C(=O)c2cccc(NS(C)(=O)=O)c2O[C@H]1CN(C)Cc1ccc(Cl)c(Cl)c1`, the inhibition is reported as inconclusive: 37.1%.
For `O=C1NC(=O)C2(COC(c3ccccc3)OC2)S1` (configuration not stated), the inhibition was inactive: -32.6%.
For `C[C@H]1CN([C@@H](C)CO)C(=O)c2cc(NC(=O)NC3CCCCC3)ccc2O[C@@H]1CN(C)Cc1ccccc1`, the inhibition was inactive: 13.1%.
In the case of `Cc1noc(C)c1NC(=O)N(C)C[C@H]1Oc2c(NS(=O)(=O)c3cn(C)cn3)cccc2C(=O)N([C@H](C)CO)C[C@@H]1C`, the inhibition is reported as inconclusive: 30.6%.
With `C[C@H]1CN([C@@H](C)CO)C(=O)Cc2cc(NC(=O)Cc3cn(C)c4ccccc34)ccc2O[C@@H]1CN(C)S(=O)(=O)c1ccc(F)cc1` the inhibition was inactive: -6.36%.
In the case of `C[C@H](CO)N1C[C@H](C)[C@@H](CN(C)Cc2ccc(C(=O)O)cc2)Oc2ccc(NC(=O)Nc3cccc4ccccc34)cc2C1=O`, the inhibition is reported as inactive: -9.91%.
For `C[C@H](CO)N1C[C@H](C)[C@H](CN(C)C)Oc2ccc(NS(=O)(=O)c3ccc(Cl)cc3)cc2CC1=O`, the inhibition was inconclusive: 27.1%.
For `C[C@@H]1CN([C@H](C)CO)C(=O)Cc2cc(NC(=O)CCC(F)(F)F)ccc2O[C@@H]1CN(C)Cc1ccc(Oc2ccccc2)cc1`, the inhibition was inconclusive: 64.4%.
For `C[C@H]1CC[C@@H]2[C@@H](C(=O)c3c(O)c([C@]4(O)CC[C@@H](O)[C@H]5O[C@H]54)cn(O)c3=O)[C@@H](C)C=C[C@H]2C1`, the inhibition was active: 93.9%.
In the case of `C=C[C@@](C)(O)CCC1C(=C)CCC2[C@@](C)(CO)CCC[C@]12C` (some centres not stated), the inhibition is reported as inactive: 29.8%.
With `C[C@H]1CN([C@@H](C)CO)C(=O)c2cccc(NC(=O)c3ccncc3)c2O[C@@H]1CN(C)C` the inhibition was inconclusive: 22.4%.
For `C[C@H]1CN([C@@H](C)CO)C(=O)Cc2cc(NS(=O)(=O)c3cccs3)ccc2O[C@@H]1CN(C)Cc1ccccc1`, the inhibition was inconclusive: 48.6%.
For `CC1(C)O[C@@H]2CC3C4C[C@H](F)C5=CC(=O)C=CC5(C)C4C(O)CC3(C)[C@]2(C(=O)CO)O1` (some centres not stated), the inhibition was inconclusive: 61.6%.
In the case of `CCCc1c(C(=O)OCC)c(C(=O)OCC)c2c(-c3ccccc3)nc(N3CCOCC3)nn12`, the inhibition is reported as active: 78.4%.
